Laboratory results published in the supplement of paper PMC7826260.
This is one part of the list. The data describe in vitro nicking of single-stranded DNA by Rep domains for 1 h at 37 °C with 3 µM enzyme; only the middle of the 90-letter strands is printed. Values are log2 of uncut reads against the no-enzyme pool; the lower, the more was cut; hits are not called. Because reads are shares of a total, they shift together, so uncut sequences can rise above 0 when many others are cut.

Legend:
Experiment in all cases: uncleaved DNA left, log2 of reads against the no-enzyme library (log2 ratio); higher = less cleavage (more negative = more Rep cleavage of the k-mer); sequences stand for … in CTCGTCCG…ACCGGAGA
[1] = test system: T1, Rep nickase domain of Muscovy duck circovirus
T1 sequence (residues 1-111, tag not shown): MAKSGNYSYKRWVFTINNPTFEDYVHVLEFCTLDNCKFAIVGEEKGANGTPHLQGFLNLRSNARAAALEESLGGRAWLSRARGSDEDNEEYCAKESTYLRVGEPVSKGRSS
Description: (§1)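 A pool of 90-nt single-stranded DNAs with seven random bases just before the constant AC of the nick site (name = the seven bases) was cut by 3 µM recombinant His6-SUMO-tagged Rep nickase domain (300 nM DNA, 50 mM HEPES pH 8.0, 50 mM NaCl, 1 mM MnCl2, 1 h, 37 °C, three replicates). Uncut DNA was amplified and sequenced.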

[2] = test system: T2, Rep nickase domain of banana bunchy top virus
T2 sequence (residues 1-94, tag not shown): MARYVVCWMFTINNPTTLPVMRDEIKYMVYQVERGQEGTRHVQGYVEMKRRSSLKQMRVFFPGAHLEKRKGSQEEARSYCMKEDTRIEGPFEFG
Description: as §1

[3] = test system: T3, Rep nickase domain of cabbage leaf curl virus
T3 sequence (residues 1-116, tag not shown): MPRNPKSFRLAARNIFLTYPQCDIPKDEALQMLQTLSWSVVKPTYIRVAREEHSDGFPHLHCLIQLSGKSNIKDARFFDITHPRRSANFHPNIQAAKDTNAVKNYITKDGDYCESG
Description: as §1

[4] = test system: T4, Rep nickase domain of chickpea chlorotic dwarf virus
T4 sequence (residues 1-124, tag not shown): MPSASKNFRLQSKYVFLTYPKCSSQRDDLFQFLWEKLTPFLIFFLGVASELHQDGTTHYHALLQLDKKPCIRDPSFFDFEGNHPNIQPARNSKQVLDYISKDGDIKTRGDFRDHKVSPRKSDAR
Description: as §1

[5] = test system: T5, Rep nickase domain of faba bean necrotic yellows virus
T5 sequence (residues 1-98, tag not shown): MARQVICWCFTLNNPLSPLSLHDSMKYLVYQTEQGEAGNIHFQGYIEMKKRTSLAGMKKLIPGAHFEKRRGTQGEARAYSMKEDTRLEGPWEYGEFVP
Description: as §1

[6] = test system: T6, Rep nickase domain of maize striate mosaic virus
T6 sequence (residues 1-117, tag not shown): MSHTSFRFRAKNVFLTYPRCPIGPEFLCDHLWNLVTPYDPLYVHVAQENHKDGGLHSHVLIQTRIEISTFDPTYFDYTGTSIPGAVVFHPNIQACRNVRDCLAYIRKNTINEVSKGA
Description: as §1

[7] = test system: T7, Rep nickase domain of porcine circovirus 2
T7 sequence (residues 2-116, tag not shown): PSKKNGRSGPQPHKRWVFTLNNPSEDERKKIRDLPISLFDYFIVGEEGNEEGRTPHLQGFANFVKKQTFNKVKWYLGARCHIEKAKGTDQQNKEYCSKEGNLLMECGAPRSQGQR
Description: as §1

[8] = test system: T8, Rep nickase domain of tomato golden mosaic virus
T8 sequence (residues 1-124, tag not shown): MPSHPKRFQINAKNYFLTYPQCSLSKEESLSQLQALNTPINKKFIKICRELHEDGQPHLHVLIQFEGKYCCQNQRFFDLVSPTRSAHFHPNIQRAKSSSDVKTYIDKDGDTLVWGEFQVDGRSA
Description: as §1

[9] = test system: T9, Rep nickase domain of tomato yellow leaf curl virus
T9 sequence (residues 1-136, tag not shown): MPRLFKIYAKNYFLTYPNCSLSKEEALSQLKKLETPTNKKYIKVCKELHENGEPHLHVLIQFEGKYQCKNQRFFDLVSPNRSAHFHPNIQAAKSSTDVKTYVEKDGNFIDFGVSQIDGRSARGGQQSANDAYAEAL
Description: as §1

[10] = test system: T10, Rep nickase domain of wheat dwarf virus
T10 sequence (residues 1-137, tag not shown): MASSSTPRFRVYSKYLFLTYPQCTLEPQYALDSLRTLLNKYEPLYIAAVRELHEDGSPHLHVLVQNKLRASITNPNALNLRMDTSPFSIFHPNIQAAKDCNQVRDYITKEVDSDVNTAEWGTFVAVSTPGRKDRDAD
Description: as §1

Sequence	uncleaved DNA left (log2) [1]	uncleaved DNA left (log2) [2]	uncleaved DNA left (log2) [3]	uncleaved DNA left (log2) [4]	uncleaved DNA left (log2) [5]	uncleaved DNA left (log2) [6]	uncleaved DNA left (log2) [7]	uncleaved DNA left (log2) [8]	uncleaved DNA left (log2) [9]	uncleaved DNA left (log2) [10]
AGGTCTT	-0.651	0.0529	0.186	-0.747	-0.138	1.13	-3.23	0.0713	0.215	0.014
TATCCTG	0.00311	0.0135	0.117	0.774	-0.0166	0.9	0.019	0.0368	0.000919	-0.0117
TCGATTG	-0.0329	0.00972	-0.0411	0.683	-0.0316	1.47	0.0921	0.129	-0.0276	0.0937
TCGACGT	0.0448	-0.0375	0.0208	0.442	-0.105	0.859	-0.0297	-0.0544	0.0333	0.151
GCTTTTG	0.0238	-0.109	-0.352	-0.0184	-0.0853	-0.917	0.078	-0.0826	-0.000572	-0.0341
CGTAGAA	-0.109	-0.224	-0.0127	-0.0832	0.00551	-0.571	-0.171	-0.0169	-0.205	-0.0441
TGTTTGC	0.0876	-0.0186	-0.429	-0.68	0.0523	-0.999	0.137	0.0149	0.152	-0.0442
CGTGATT	-0.0128	-0.00101	0.126	-1.32	0.0218	0.0967	-1.78	0.145	0.00133	0.0281
CACGAAT	-0.00695	-0.239	-0.06	-1.49	-0.0388	-0.334	-0.449	-0.23	-0.164	-0.199
ACAGTAT	-0.163	-0.165	-0.15	-1.01	-0.0954	-0.637	-0.0584	-0.117	-0.155	-0.217
TCGGCGT	-0.0759	-0.251	-0.783	-0.536	-0.179	-1.1	-0.0534	-0.299	-0.261	-0.227
ATGACCC	-0.12	0.00969	0.301	0.96	-0.0195	0.814	0.0105	-0.0409	0.0271	0.122
ACCGTCA	0.00645	-0.0948	-0.22	-0.847	0.000846	-0.779	-0.0694	-0.0322	-0.0705	-0.0305
AAAAATT	-0.272	-0.346	-3.86	-3.17	0.143	-2	-3.9	-2.12	-0.0978	-3.42
GGGGTAT	0.11	0.15	0.975	2.1	0.16	2.39	0.282	0.108	0.135	0.205
CGGACTC	-0.167	0.00613	0.595	1.51	-0.132	1.95	-0.0535	-0.14	-0.141	0.0803

Sequence	uncleaved DNA left (log2) [1]	uncleaved DNA left (log2) [2]	uncleaved DNA left (log2) [3]	uncleaved DNA left (log2) [4]	uncleaved DNA left (log2) [5]	uncleaved DNA left (log2) [6]	uncleaved DNA left (log2) [7]	uncleaved DNA left (log2) [8]	uncleaved DNA left (log2) [9]	uncleaved DNA left (log2) [10]
ATTCAAC	-0.185	-0.0463	-0.227	-1.82	0.000192	-0.842	-0.0619	-0.0614	-0.18	-0.114
CTTAAGG	0.0658	0.116	0.398	1.39	0.102	1.35	0.217	0.0703	0.0158	0.0762
GCGGCGA	-0.0726	-0.0251	-0.401	-0.207	0.0162	-0.325	0.0575	0.0326	-0.0192	-0.218
AGTATCA	0.0305	0.0674	0.566	0.901	-0.0319	1.04	-0.229	-0.0421	0.144	0.175
TAGCGGC	0.0736	0.0228	-0.0271	0.0973	-0.0577	-0.0226	0.184	0.175	0.03	0.0438
CCCGTCT	-0.109	-0.16	-0.159	-1.76	-0.218	-0.65	-0.348	-0.176	-0.106	-0.409
CACGCGC	-0.0548	-0.0793	-0.771	-0.176	0.0469	-0.846	0.151	-0.0882	-0.118	-0.117
AGAGACG	0.138	0.0863	-0.021	0.617	-0.0294	1.26	0.177	0.148	-0.0155	0.0966
ACCAGTG	0.00887	0.0549	-0.688	0.154	-0.0341	-0.698	0.144	-0.0129	0.0852	-0.0191
AAGAAGT	-0.0434	-0.0837	0.212	0.767	0.0572	0.647	-3.01	0.088	-0.158	-0.0146
TCTCCGA	0.091	-0.0599	-0.0254	0.155	-0.0168	0.0118	0.0649	0.0257	-0.094	0.0179
CTGAGCC	0.0792	0.0871	0.0165	0.148	0.0602	-0.259	0.0777	0.0676	-0.0147	0.0916
GAGACGA	0.0501	0.0854	0.691	1.85	0.0409	2	0.0903	0.052	0.035	0.143
CGCACAC	0.137	0.0723	0.0778	0.139	0.00141	-0.191	0.0497	-0.0686	-0.0578	0.0103
TTCCTGC	-0.0546	-0.146	-0.481	-0.759	-0.0117	-1.11	-0.065	-0.185	-0.16	-0.0634
